Data from ChEMBL document CHEMBL4888484, “Replenishing the malaria drug discovery pipeline: Screening and hit evaluation of the MMV Hit Generation Library 1 (HGL1) against asexual blood stage Plasmodium falciparum ,using a nano luciferase reporter read-out” (2022).
Screen size: about 150,000 compounds; about 540 (0.36%) showed an effect of 50% or more. The list shows a part of the results.

Each compound was assayed on Plasmodium falciparum (assay: Primary screen in NF54 nanoGlo assay, in single point, at 2uM, 72h; a lower Z score goes with more inhibition). Settings: timepoint 72 hour.
Format: functional, Erythrocyte

Row | SMILES | % Inhibition [%] | Z score
1 | Cc1ccc(C2=C[C@@H](c3ccccc3Cl)n3nc(NC(=O)c4ccccc4F)nc3N2)cc1 | -13 | 1.67
2 | CCN(C(=O)Nc1ccc2c(c1)OCO2)[C@H]1COC[C@@H]1O | -3 | 0.52
3 | O=C([C@H]1CCCN(C2CCN(Cc3cccnc3)CC2)C1)N1CCCCCCCC1 | -15 | 2.93
4 | Cc1cc(F)ccc1S(=O)(=O)N1CC(N2CCCC2)C1 | 1 | -0.1
5 | CC(C)(C)c1coc(N2C3CCC2CC(O)C3)n1 (stereo not drawn) | 10 | -1.3
6 | Cc1nc(NCc2ccc(S(N)(=O)=O)cc2)c2nc(C)oc2n1 | 5 | -0.92
7 | COc1cccc(Cc2nsc(N3CCC(Cc4ccccc4)CC3)n2)c1 | -9 | 0.94
8 | COc1c(C)ccc(NC(=O)N2CCC(c3nccs3)CC2)c1C | 4 | -0.65
9 | FC(F)COCCc1nc(Cc2cccnc2)no1 | 3 | -0.47
10 | CC(C)(C)c1ccc(NC(=O)CCCc2nnc3ccccn23)cc1 | -18 | 2.25
11 | CC(C)(C)OC(=O)N1C[C@@H]2C[C@H]1C(=O)NC[C@H]1O[C@H](CCOc3cc(-c4ccncc4)ccc3C(=O)N2)CC[C@@H]1O | 9 | -1.18
12 | CCn1cc(S(=O)(=O)NC[C@]2(O)CCCc3ccccc32)cn1 | -10 | 1.41
13 | CS(=O)(=O)N1CCC(Nc2ncnc3cc(Cl)ccc23)CC1 | 18 | -2.07
14 | Cn1nc(C(F)(F)F)cc1CNC(=O)N[C@H]1CC12CCOCC2 | -10 | 1.02
15 | CC/C=C/CC(=O)N1CCC[C@]2(CCCN(CC)C2)C1 | 1 | -0.11
16 | CCOc1nnc(CN2CC(n3cc(C)cn3)C2)s1 | -7 | 1.01
17 | CN(Cc1cnccn1)C(=O)c1cc(F)cc(Cl)c1O | -9 | 1.42
18 | OCC[C@]1(CNc2cnc3cc(Cl)c(Cl)cc3n2)CCOC1 | -2 | 0.47
19 | Cc1ccc(NC(=O)Cn2c(-n3nc(C)cc3C)nc3c(c2=O)CCC3)c(C)c1 | 14 | -1.62
20 | CCCCCC(=O)N(O)[C@H]1CC(=O)N(c2ccc(Cl)cc2)C1=O | -14 | 1.5
21 | O=C(Cc1ccsc1)NCCc1c[nH]c2ccccc12 | -5 | 0.73
22 | Cc1csc(CNc2ccn(C)n2)n1 | -3 | 0.49
23 | CC(=Cc1ccc(C)cc1)C(=O)N1CCC[C@H](c2c[nH]nn2)C1 | -15 | 1.99
24 | COC[C@H]1[C@@H](NC(=O)c2ccc3cccc(Cl)c3n2)[C@H]2CCO[C@H]21 | -2 | 0.22
25 | O=C1CCCN1c1ccc(-c2csc(-c3ccc(F)cc3)n2)cc1 | -11 | 1.79
26 | COC(=O)c1cc(C)nc2c1c(=O)n(Cc1cccc(Cl)c1)c(=O)n2-c1ccccc1 | -14 | 1.75
27 | O=C(CCc1n[nH]c2c1CCCC2)NCCNC(=O)c1ccccc1Cl | 3 | -0.4

Row | SMILES | % Inhibition [%] | Z score
28 | C=CCN1CCC[C@H]1C(=O)N1CCn2cncc2C1 | -7 | 1.03
29 | O=C(C1CCN(c2ncnc3c2nc2n3CCCCC2)CC1)N1CCN(c2ccccc2F)CC1 | -9 | 1.4
30 | OCCN(CCn1cnnc1)Cc1ccc(F)cc1 | -9 | 1.75
31 | Cc1noc(C)c1CCC(=O)N1CCC[C@H]1C1CCOCC1 | -5 | 0.51
32 | Cc1cccc([C@H]2C(=O)NCCN2C(=O)Cc2cncnc2)c1 | -9 | 1.22
33 | CCCn1cnnc1Cn1ccnc1-c1cccnc1 | -4 | 0.37
34 | COc1ccc(CNC(=O)c2nnn3c2c(=O)[nH]c2cc(F)ccc23)cc1 | -1 | 0.26
35 | CCc1ccc([C@@H]2CCCCCN2S(=O)(=O)Cc2ccon2)o1 | -5 | 0.82
36 | COCCS(=O)(=O)N[C@@H](C)c1ccc(C#N)cc1 | -8 | 1.26
37 | O=C(c1cccc(F)c1)N(Cc1nccn1Cc1ccc(Cl)c(Cl)c1)C1CC1 | -18 | 2.53
38 | O=C1Nc2ccccc2C(O)=N[C@H]1CCC(=O)N1CCc2[nH]c3ccc(OC(F)(F)F)cc3c2C1 | -14 | 1.87
39 | COc1c(C)cnc(CN2C=C(c3nc(-c4ccccc4)no3)C(C)=NS2(=O)=O)c1C | -1 | 0.07
40 | CCc1nccn1CCc1ccc(OC)cc1 | 2 | -0.18
41 | O=C(CN1CCN(Cc2ccccc2)CC1)NCc1ccccc1CN1CCOCC1 | -3 | 0.37
42 | O=C(COc1ccc(Cl)cc1)N1CC[C@@H](O)C1 | -7 | 1.03
43 | COc1cc(Cl)c(CN2CC(C(N)=O)O[C@H](C)C2)cc1Cl (stereo partly drawn) | 4 | -0.36
44 | O=C(Nc1ccccc1)OC1CCCC(NC(=O)c2cnccn2)C1 (stereo not drawn) | -15 | 1.77
45 | CCc1cc2c(N3CC(c4ncc(C5CC5)cn4)C3)ncnc2s1 | 0 | -0.06
46 | Cc1cnc(N)nc1NC1CCN(S(=O)(=O)c2ccccc2)CC1 | 1 | -0.1
47 | COc1cc([C@H](C)N)ccc1OCC(F)(F)F | 5 | -0.69
48 | O=C(NCc1cccnc1Oc1ccc(F)c(F)c1)c1cc[n+]([O-])cc1 | 1 | -0.05
49 | COc1ccc2oc(CNC(=O)c3c[nH]nc3-c3cccc(F)c3)nc2c1 | -8 | 1.36
50 | OCCN(Cc1nnc(-c2cccnc2)o1)C1CCCCC1 | -9 | 0.88
51 | O=C(Nc1ccc(F)cn1)N1CCC[C@H](c2nc(=O)[nH][nH]2)C1 | -10 | 0.84
52 | COc1ccc(CN2C(=O)O[C@H]3CN(Cc4cccc(O)c4)C[C@H]32)cc1OC | -6 | 0.74
53 | C[C@H]1Cc2ccc(F)cc2CN1S(=O)(=O)CC1CCOCC1 | -3 | 0.33
54 | COC(=O)c1nc(CCNc2cc(C#N)cnn2)sc1C | -16 | 3.14
